Experimental data published in PubChem BioAssay AID360 (National Center for Advancing Translational Sciences (NCATS), 2006).
Hit rate of the full screen: of about 48,000 compounds, about 550 (1.1%) were called active. Roughly 4% stayed inconclusive and do not appear here. Cut-off read from the data, not from the text of the source: active = potency below about 15 µM; inconclusive = mostly about 16 µM to 33 µM; inactive = weaker than that. The list shows a part of the results.

molecular target: Lysosomal acid glucosylceramidase (Homo sapiens) (UniProt P04062); test: Glucocerebrosidase; conditions: purified enzyme, resorufin glucoside fluorescence (screen aimed at inhibitors), 20 min;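 note: the screen sought inhibitors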
Sequence of UniProt P04062 (P04062 whole entry, looked up): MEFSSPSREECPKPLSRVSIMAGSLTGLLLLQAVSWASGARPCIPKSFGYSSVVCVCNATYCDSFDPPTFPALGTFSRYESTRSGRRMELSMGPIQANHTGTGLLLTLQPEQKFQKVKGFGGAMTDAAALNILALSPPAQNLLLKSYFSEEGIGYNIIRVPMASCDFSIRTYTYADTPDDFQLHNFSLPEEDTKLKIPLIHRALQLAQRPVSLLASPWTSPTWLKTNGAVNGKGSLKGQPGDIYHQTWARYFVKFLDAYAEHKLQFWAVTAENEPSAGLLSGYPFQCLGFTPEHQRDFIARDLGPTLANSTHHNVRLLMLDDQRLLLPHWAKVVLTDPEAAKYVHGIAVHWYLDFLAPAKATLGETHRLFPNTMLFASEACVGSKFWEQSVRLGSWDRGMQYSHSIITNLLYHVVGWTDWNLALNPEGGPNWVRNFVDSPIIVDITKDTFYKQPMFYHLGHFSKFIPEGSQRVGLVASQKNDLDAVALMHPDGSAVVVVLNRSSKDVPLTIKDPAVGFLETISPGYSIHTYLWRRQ
Method in brief: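 Wild-type enzyme at 0.2 nM final in 50mM citric acid/KH2PO4, 10mM sodium taurocholate, 0.01% tween-20, pH 5.9, with resorufin beta-D-glucopyranoside at 30 uM final. Compounds titrated, 20 min at RT, red fluorescence read; AC50 from titration.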
Potency is the fitted concentration of half-maximal effect.

Potency, inactive:
CC(=O)Nc1ccc(S(=O)(=O)c2ccc(N)cc2)cc1 > 76.9 µM
O=C(NCc1ccc2c(c1)OCO2)c1ccc(S(=O)(=O)NCC2CCCO2)cc1 (stereo unspecified) > 76.9 µM
Cc1ccc(C(=O)N(CN2CCCC2=O)c2ccccc2)cc1C > 76.9 µM
CCOc1ccccc1NC(=O)c1cc(S(=O)(=O)N2CCC3(CC2)OCCO3)ccc1F
OCCSc1nncn1/N=C/c1c[nH]c2ccccc12 > 76.9 µM
Cc1ccc(S(=O)(=O)Nc2nonc2C)cc1 > 76.9 µM
Cc1cc(C(=O)OCC(=O)NCc2ccco2)c(C)n1-c1ccc(F)cc1 > 76.9 µM
N=P(N1CCOCC1)(N1CCOCC1)C12CC3CC(CC(C3)C1)C2 > 76.9 µM
O=S(=O)(NCCCO)c1ccc2c(c1)Cc1cc(S(=O)(=O)NCCCO)ccc1-2 > 76.9 µM
O=C(OCC(=O)N1CCN(C(=O)c2ccco2)CC1)c1ccc(S(=O)(=O)N2CCCCC2)cc1 > 76.9 µM
O=C(CSc1nc(C2CCCCC2)n(-c2ccccc2)n1)NCCN1C(=O)CSC1=O
O=C(CN1CCCCCC1=O)OCc1ncc(-c2ccccc2)o1 > 76.9 µM
OCCn1c(CSc2nnc(-c3ccco3)n2-c2ccccc2)nc2ccc(Cl)cc21 > 76.9 µM
CC(Oc1ccc(Cl)cc1)C(=O)Nc1ncccn1 (stereo unspecified) > 76.9 µM
CCc1nc(NCc2ccco2)c2oc3ccccc3c2n1 > 76.9 µM
Cn1c(=O)c2cc(S(=O)(=O)NCCC(=O)N3CC=C(c4ccccc4)CC3)ccc2n(C)c1=O > 76.9 µM
O=C(CCn1c(SCC(=O)NCc2ccco2)nc2ccccc2c1=O)NCCc1ccccc1 > 76.9 µM
Cn1c(=O)[nH]c(=O)c2c1nc(SCC(O)CO)n2Cc1ccccc1Cl (stereo unspecified) > 76.9 µM
CSCC[C@H](NC(=O)NCc1cccs1)C(=O)O > 76.9 µM
COCCN1C(=O)C(O)=C(C(C)=O)C1c1ccc(OC)c(OC)c1 (stereo unspecified) > 76.9 µM
Cn1c2ccccc2c2ncn(CCN3CCOCC3)c(=O)c21 > 76.9 µM
CN(CC(=O)Nc1nccs1)S(=O)(=O)c1ccc(F)cc1 > 76.9 µM
CC(C)(CO)NCc1ccccc1OCC(=O)Nc1ccccc1 > 76.9 µM
O=C(CSc1nc2[nH]ncc2c(=O)n1-c1ccccc1)c1ccc2c(c1)OCCO2 > 76.9 µM
CCCS(=O)(=O)N1CCCC(C(=O)NCCN(CC)CC)C1 (stereo unspecified) > 76.9 µM
O=C(CSc1nnc(-c2cnccn2)n1Cc1ccco1)c1ccccc1 > 76.9 µM
CCCCN(C(=O)NC(=O)C1=C(N2CCOCC2)/C(=C/c2ccccc2)CC1)S(C)(=O)=O > 76.9 µM
Cc1cc2cc(CN3C(=O)c4ccccc4C3=O)ccc2n1C > 76.9 µM
Cc1ccccc1-n1c(C)nnc1SCc1nc2ccccc2s1 > 76.9 µM
COc1nc(C)ccc1-c1noc(-c2ccncc2)n1 > 76.9 µM
CC(=O)Nc1nc(=O)c2ccccc2s1 > 76.9 µM
CCC(=O)NC(c1ccccc1)c1nc2ccccc2[nH]1 (stereo unspecified) > 76.9 µM
Cn1c(=O)[nH]c(=O)c2c1nc(NCCCO)n2Cc1ccc(F)cc1 > 76.9 µM
Cc1nc(C)c(-c2ccccc2)c(=O)[nH]1 > 76.9 µM
CC1Cc2ccccc2N1C(=O)COC(=O)C1=COCCO1 (stereo unspecified) > 76.9 µM
CC1(C)Oc2ccc(C(=O)NC3CC3)cc2N(CC(=O)N2CCOCC2)C1=O > 76.9 µM
Cc1ccc(NC(=O)Cc2cn3ccsc3n2)nc1 > 76.9 µM
CCC(c1nnnn1CCOC)N(Cc1ccc(C)cc1)Cc1cc2cc(OC)ccc2[nH]c1=O (stereo unspecified) > 76.9 µM
Cc1c(Cl)cccc1NC(=O)CCCCCN1C(=O)CCC1=O > 76.9 µM
OC(CN1C2=NCCN2c2ccccc21)c1ccccc1 (stereo unspecified) > 76.9 µM
Cc1ccc2nc3ccc(N4CCCC4)nn3c(=O)c2c1 > 76.9 µM
CCOC(=O)C1CCCN(C(=O)C2CCN(S(=O)(=O)c3cccs3)CC2)C1 (stereo unspecified) > 76.9 µM
CCOC(=O)C1CCN(C(=O)Cc2c(F)cccc2Cl)CC1 > 76.9 µM
COc1cc2c(cc1OC)CN(C(=O)c1ccc(OC)c(S(=O)(=O)N3CCOCC3)c1)CC2 > 76.9 µM
Cc1ccnc(NS(=O)(=O)c2cccs2)c1 > 76.9 µM
Cc1ccc(-c2csc(N3CCC(NS(=O)(=O)c4ccc5c(c4)OCCO5)CC3)n2)cc1 > 76.9 µM
N#CCCCN1C(=O)C(O)(CC(=O)c2ccc3c(c2)OCCO3)c2ccccc21 (stereo unspecified) > 76.9 µM
CCC(C)Sc1nc2c(c(=O)[nH]c(=O)n2C)n1Cc1ccc(Cl)cc1 (stereo unspecified) > 76.9 µM
C/C(NCCCn1ccnc1)=C(\C#N)C(N)=O > 76.9 µM
CC1=C(C(=O)Nc2ccccc2)C(c2cccnc2)n2nc(-c3cccnc3)nc2N1 (stereo unspecified) > 76.9 µM
CCC(C)N(C(=O)c1csnn1)C(C(=O)NCc1ccc(F)cc1)c1ccco1 (stereo unspecified) > 76.9 µM
CC(=O)c1cccc(NC(=O)Nc2cnn(Cc3ccc(F)cc3)c2)c1 > 76.9 µM
COc1ccc(-c2nnc3ccc(SCC(=O)NCC4CCCO4)nn23)cc1 (stereo unspecified) > 76.9 µM
O=C(O)C1CCCN1C(=O)OCc1ccccc1 (stereo unspecified) > 76.9 µM
CCn1c(SCC(=O)Nc2cccc(C(C)=O)c2)nnc1C(C)C > 76.9 µM
CC(C)Cn1c(=O)c2ccccc2c2ccccc2c1=O > 76.9 µM
O=C(Nc1ccc2c(c1)OCCO2)c1c(F)cccc1F > 76.9 µM
CCOC(=O)N1CCC(NC(=O)C2CCC(CNS(=O)(=O)c3ccc(OC)cc3)CC2)CC1 (stereo unspecified) > 76.9 µM
O=C(Nc1nccs1)C1CCN(S(=O)(=O)c2cnc[nH]2)CC1 > 76.9 µM
COC(=O)C1CCN(C(=O)COc2ccc(Cl)cc2)CC1 > 76.9 µM
CCOCC(=O)Nc1nc2ccc(C)cc2s1 > 76.9 µM
COc1cc(NC(=O)CSc2nnc(C)s2)cc(OC)c1 > 76.9 µM
CCn1c(SCC(=O)OC2CCCCC2)nnc1-c1ccncc1 > 76.9 µM
Cc1c(/C(O)=C2/C(=O)C(=O)N(CCN3CCOCC3)C2c2cccs2)cnn1-c1ccccc1 (stereo unspecified) > 76.9 µM
CCOc1cc2[nH]c(=O)n(CCC(=O)NCCc3ccccc3)c(=O)c2cc1OCC > 76.9 µM
N#Cc1c(N)n(C2CCCCC2)c2nc3ccccc3nc12 > 76.9 µM
COc1ccc(CNC(=O)c2cc(-n3cnnc3)ccc2Cl)cc1 > 76.9 µM
CCOC(=O)c1[nH]c2ccc(F)cc2c1NC(=O)C1=COCCO1 > 76.9 µM
CCc1nc(SCC(=O)Nc2ccccc2C(=O)OC)n[nH]1 > 76.9 µM
CCCCC(=O)Nc1ccc(C(=O)N2CCN(c3ccccc3OC)CC2)cc1 > 76.9 µM
CCCn1c(SCc2nc(-c3cccs3)no2)nnc1-c1ccncc1 > 76.9 µM
O=C(NCC(c1cccnc1)N1CCOCC1)c1ccco1 (stereo unspecified) > 76.9 µM
CCOC(=O)c1ccc(NC(=O)c2c(O)c3ccccc3n(C)c2=O)cc1 > 76.9 µM
CCOC(=O)Cn1c(=O)c2c(nc3n2CCCCN3c2ccc(C)cc2)n(C)c1=O > 76.9 µM
Clc1nc2sccn2c1/C=N/n1cnc2ccccc21 > 76.9 µM
Cc1ccc(S(=O)(=O)N(C)c2ccc(OCC(=O)OCc3c(C)noc3C)cc2)cc1 > 76.9 µM
COC(=O)c1c(NC(=O)CSc2nnnn2C)sc(C)c1C > 76.9 µM
Cc1ccc(CC2CC(=O)N(c3ccc(Cl)cn3)C2=O)cc1 (stereo unspecified) > 76.9 µM
CCNc1nc(NC(C)C)nc(OCCNS(=O)(=O)c2cc(C)ccc2C)n1 > 76.9 µM
O=C(c1ccccc1)c1ccc(N2CCNCC2)cc1 > 76.9 µM
Cn1cnnc1Sc1nc2c(c(=O)n(C)c(=O)n2C)n1C > 76.9 µM
O=C(CSc1ncnc2c1cnn2-c1ccccc1)Nc1ccc2c(c1)OCO2 > 76.9 µM
O=C(NC1CCCCC1)c1noc2c1CCCCC2 > 76.9 µM
CCCCn1nnnc1NCc1ccc(OC)c(OC)c1 > 76.9 µM
CC1CCC(NS(=O)(=O)c2ccc3c(c2)n(C)c(=O)c(=O)n3C)CC1 (stereo unspecified) > 76.9 µM
N#Cc1cc(C(=O)c2cc(Cl)ccc2O)cn(CC2CCCO2)c1=O (stereo unspecified) > 76.9 µM
COc1cc(-c2nn3c(Cc4ccccc4)nnc3s2)cc(OC)c1OC > 76.9 µM
COc1ccc(OC)c(S(=O)(=O)NCc2cn3ccsc3n2)c1 > 76.9 µM
O=C(c1ccc(Cl)cc1)c1nnc(-c2ccncc2)o1 > 76.9 µM
Cc1cccc(C)c1NC(=O)CSc1nnc(-c2ccco2)n1N > 76.9 µM
CCOC(=O)Cn1nnc(-c2ccc(S(C)(=O)=O)cc2)n1 > 76.9 µM
